“And” between values parts separate entries of the source, which are not always exact repeats. Equal values may be shown once. Among all 16,000 compounds or so, about 40 (0.2%) were called active. Another 1% or so got no clear call; they are omitted. The call rests on the fitted dose curve; in most records, active means well fitted activation curve with a large enough effect; inconclusive means small, poorly fitted or top-dose-only effect, or another doubt; inactive means no such curve, though single readings can be large or run the other way. The list shows a part of the results.
On the % scale 0 is the no-effect control and ±100 the full control effect.

UniProt Q8WZA2, sequence (Q8WZA2 whole entry, looked up): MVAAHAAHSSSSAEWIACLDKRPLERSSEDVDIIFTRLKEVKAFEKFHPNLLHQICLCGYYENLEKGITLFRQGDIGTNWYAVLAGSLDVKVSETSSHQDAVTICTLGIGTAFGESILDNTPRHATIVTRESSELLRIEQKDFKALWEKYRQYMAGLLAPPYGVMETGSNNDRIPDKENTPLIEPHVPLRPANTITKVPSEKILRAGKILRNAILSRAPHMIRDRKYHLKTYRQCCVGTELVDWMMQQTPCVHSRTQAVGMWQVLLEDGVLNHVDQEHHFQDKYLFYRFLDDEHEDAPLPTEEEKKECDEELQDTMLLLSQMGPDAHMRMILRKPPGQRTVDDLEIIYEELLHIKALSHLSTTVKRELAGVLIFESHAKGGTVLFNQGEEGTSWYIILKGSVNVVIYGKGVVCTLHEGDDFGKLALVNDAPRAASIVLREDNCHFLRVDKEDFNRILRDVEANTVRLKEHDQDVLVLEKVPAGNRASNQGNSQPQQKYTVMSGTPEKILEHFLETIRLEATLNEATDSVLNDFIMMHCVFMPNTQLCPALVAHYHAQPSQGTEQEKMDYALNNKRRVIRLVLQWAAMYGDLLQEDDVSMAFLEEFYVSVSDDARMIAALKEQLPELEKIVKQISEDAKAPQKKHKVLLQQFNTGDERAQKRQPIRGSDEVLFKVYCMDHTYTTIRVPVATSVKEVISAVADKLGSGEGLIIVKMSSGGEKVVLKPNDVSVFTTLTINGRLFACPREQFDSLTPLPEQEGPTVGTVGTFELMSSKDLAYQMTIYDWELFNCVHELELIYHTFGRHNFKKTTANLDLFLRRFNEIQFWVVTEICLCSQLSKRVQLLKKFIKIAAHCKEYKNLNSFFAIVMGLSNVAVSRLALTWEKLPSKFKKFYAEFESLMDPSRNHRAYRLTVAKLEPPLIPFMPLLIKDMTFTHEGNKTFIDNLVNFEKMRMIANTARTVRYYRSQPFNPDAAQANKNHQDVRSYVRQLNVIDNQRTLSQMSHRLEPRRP

This test concerns the target Rap guanine nucleotide exchange factor 4 (Homo sapiens) (UniProt Q8WZA2). The test is described as follows: Validation qHTS for agonist of cAMP-regulated guanine nucleotide exchange factor 4 (EPAC2).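 Further: exchange makes BODIPY-GDP fluorescence drop when released from Rap1B; series mostly up to about 150 µM.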 The settings on record: EPAC2 Rap1B BODIPY-GDP exchange, fluorescence; activation: active compounds read high. A digest of the protocol:
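Signal normalized against 6.5 mM cAMP as agonist control. Mix of EPAC2 (100 nM), RAP1B-BODIPY-GDP (250 nM) and GDP (50 uM) was read kinetically at 480/540 nm, every 5 min over 30 min, after 5 min room-temperature incubation with compound.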
For `CN(CC(=O)O)c1ccc(/C=C2\C=Cc3ccccc32)cc1`, the activation is inactive: -34.3% and inactive: -20.3%.
`CC(=O)OC[C@@]1(O)C[C@]23CCC4c5ccoc5CC[C@@]4(C)C2CCC1C3` (stereo partly drawn): the activation is inactive: -0.679%.
The result for `N#Cc1cccc(-c2nc3cnc(Oc4cccc(Cl)c4)nc3n(C3CC3)c2=O)c1` reads inactive: -1.67%.
For the compound `Cc1nc(NCc2c(C)nn(C)c2Cl)sc1-c1ccn(CC2COc3ccccc3O2)n1` (stereo not drawn), the activation is inactive: -3.69%.
Regarding `CCOc1ccc(C(=O)OCCN(CC)CC)cc1`, the activation was inactive: 7.23%.
As to `CC1CCN=C(N)S1` (stereo not drawn), the activation is inactive: -12.7%.
With `COC(=O)N1CCC[C@@]2(CCN(C(c3ccccc3)c3ccccc3)C2)C1`, the activation was inactive: 1.4%.
`COCC(=O)N1CCC[C@@]2(CCN(c3ccccc3)C2)C1`: the activation was inactive: -1.76%.
Take `CCc1cccc(CC)c1NC(=O)CN(CC(=O)O)CC(=O)O`: the activation was inactive: 6.97%.
For `C[N+]1(C)[C@@H]2CC(OC(=O)C(O)(c3cccs3)c3cccs3)C[C@H]1[C@@H]1O[C@@H]12` (stereo partly drawn) the value was inactive: -4.41%.
`O=c1cc(-c2ccc(O)c(O)c2)oc2ccccc12`: the activation is inactive: -8.93%.
The result for `O=C(O)c1cc(N(Cc2ccccc2O)Cc2cc(O)ccc2O)ccc1O` reads inactive: -7.63%; that for `CC1(C)CC2C1CC[C@]1(C)CCC3C(C(=O)O)CC(=O)O[C@]32C1` (stereo partly drawn), inactive: -41.4%.
The result for `COc1ccccc1CCn1c(=O)c(C)nc2cncnc21` reads inactive: -8.32%; that for `COc1ccc(-n2c(=O)c(-c3ccc(F)cc3)nc3cncnc32)cc1`, inactive: 0.968%; that for `CC(=O)C[C@H]1c2ccccc2S(=O)(=O)N1c1ccccc1`, inactive: -31.8%.
The result for `C[C@]12CCC(=O)C=C1[C@@H]1C[C@@H]1[C@H]1[C@@H]3[C@@H]4C[C@@H]4[C@@]4(CCC(=O)O4)[C@@]3(C)CC[C@@H]12` reads inactive: -16.5%; that for `N#Cc1cccc(-c2cc(NCc3ccccc3)ncn2)c1`, inactive: -18.3%; that for `C=C(C)[C@H]1CC=C(C)C(=O)C1`, inactive: -9.52%.
For the compound `Cc1noc(C)c1-c1ccc2ncnc(NC3CCNCC3)c2c1`, the activation is inactive: -11.5%.
For `COc1ccc(C(=O)N2CCC3(CCN(Cc4nccs4)CC3)CC2)cc1` the value was inactive: -25%; for `COc1ccc2cc([C@H](C)C(=O)O)ccc2c1`, inactive: -10.7% and inactive: -16.8%.
The result for `NC(=O)[C@@H]1CCCN1C(=O)CC1(c2cccc(F)c2)CC(=O)N(C2CCCC2)C1=O` (stereo partly drawn) reads inactive: -7.13%.
Regarding `O=C(O)/C=C1\CCCc2ccccc2C1O` (stereo not drawn), the activation is inactive: 7.94%.
For the compound `COc1cc(OC)cc(C(=O)N2CCCC(n3cc(C(=O)NCC(C)C)nn3)C2)c1` (stereo not drawn), the activation was inactive: 3.88%.
The result for `O=C(O)[C@H]1CCCNC1` reads inactive: -19.5%; that for `CS(=O)(=O)Nc1c(O)ccc2c1CCCC2C1=NCCN1` (stereo not drawn), inactive: -8.01%; that for `COCCNc1ncnc2ccc(-c3ccoc3)cc12`, inactive: -5.98%.
Take `CCC1(C2CCN(C(=O)c3ccccc3C)CC2)NC(=O)N(CCc2scnc2C)C1=O` (stereo not drawn): the activation was inactive: -8.35%.
For `NC(CS)C(=O)O` (stereo not drawn), the activation was inactive: -11.2%.
The result for `O=C(c1csnn1)N1CCC[C@@]2(CCN(c3cccc(-c4ccccc4)c3)C2)C1` reads inactive: -10.8%; that for `C[C@]12CCC(=O)C=C1CC[C@@H]1[C@H]2[C@@H](O)C[C@@]2(C)[C@H]1CC[C@]2(O)C(=O)CO`, inactive: 16.3%.
As for `CO[C@H]1[C@H](NC(=O)c2ccsc2)c2ccccc2C12CCN(Cc1ccc3c(c1)OCO3)CC2`, the activation is inactive: 7.62%.
The result for `CN1CCN(CCC=C2c3ccccc3Sc3ccc(S(=O)(=O)N(C)C)cc32)CC1` reads inactive: 19.4% and inactive: -23%; that for `CC(=O)NCCNc1nc(-c2cccc(C#N)c2)nc2ccccc12`, inactive: 1.32%.
As to `CCOC(=O)C[C@H]1c2ccccc2S(=O)(=O)N1C1CC1`, the activation was inactive: -16%.
With `CC1=C(/C=C/C(C)=C/C=C/C(C)=C\CO)C(C)(C)CCC1`, the activation was inactive: -4.5%.
Turning to `Cc1cc[n+](CCC2CCCCC2)c2ccccc12`, the activation was inactive: -27.5%.
For `O=C(NC1CCCC1)c1cn(C2CCCN(Cc3ccc4c(c3)OCCO4)C2)nn1` (stereo not drawn) the value was inactive: -1.47%; for `O=c1c2ccccc2oc2ccc(Oc3ccccc3)cc12`, inactive: -2.6%.
As to `CC(C)C[C@H](NC(=O)N1CCCCCC1)C(=O)N[C@H](Cc1cn(C)c2ccccc12)C(=O)N[C@H](Cc1ccccn1)C(=O)O`, the activation was inactive: -10.3%.
`NC(=Nc1ccccc1)NC(=O)c1nc(Cl)c(N)nc1N`: the activation is inactive: -15% and inactive: -5.94% and inactive: -15.1%.
As to `Clc1ccc(-n2cccc2CN2CCc3nnc(Cc4ccccc4)n3CC2)nc1`, the activation was inactive: 5.14%.
The result for `O=C(O)c1ccccc1OP(=O)(O)O` reads inactive: -6.18%.
The result for `O=S(=O)(c1ccccc1)N1CCC2(CC1)CN(c1ncccn1)C2` reads inactive: 2.23%; that for `OC1(c2ccc(Cl)cc2)CCN(Cc2c[nH]c3ccccc23)CC1`, inactive: 6.86% and inactive: 0.638% and inactive: -14.5%; that for `COC(=O)c1c(C)cc(OC(=O)c2c(C)cc(O)c(C=O)c2O)c(C)c1O`, inactive: -18.3%.
The result for `C/C=C(/C(=C/C)c1ccc(O)cc1)c1ccc(O)cc1` reads inactive: -5.1% and inactive: 9.06%.
For the compound `COc1ccccc1CN1CC2(CCN(S(=O)(=O)c3ccccc3)CC2)C1`, the activation was inactive: -6.34%.
The result for `Nc1nc2[nH]c(=O)[nH]c2c(=O)[nH]1` reads inactive: -4.92%.
The result for `Cc1ncc([N+](=O)[O-])n1CC(C)O` (stereo not drawn) reads inactive: -15.7%.
For `Cc1c(C(=O)NCCc2cccnc2)cnn1-c1nccc(-c2ccccc2F)n1` the value was inactive: -9.69%; for `CC(=O)C[C@H]1c2ccccc2S(=O)(=O)N1C1CCCCC1`, inactive: -22.2%.
For `COC(=O)c1ccccc1C(=O)NCc1nc(N2CCCC2)c2cccc(C)c2n1`, the activation was inactive: -28.7%.
As for `CC1=C(/C=C/C(C)=C/C=C/C(C)=C/CO)C(C)(C)CCC1`, the activation was inactive: -20% [middle of 4 runs].
For `Cc1noc(C)c1C(=O)N1CCC2(CCN(Cc3cc(C(F)(F)F)cc(C(F)(F)F)c3)CC2)CC1`, the activation was inactive: -21.8%.
`COc1ccccc1N1CCN(CCN(C(=O)c2ccc(I)cc2)c2ccccn2)CC1`: the activation is inactive: -8.14%.
For `COc1ccccc1CCc1nc2ccccc2n1C1CCN(C(=O)c2cc(C)nn2C)CC1` the value was inactive: -6.12%.
The result for `NCCC(=O)N[C@H](Cc1cnc[nH]1)C(=O)O` reads inactive: -6.08%.
With `NC(Cc1cc(I)c(Oc2ccc(O)c(I)c2)c(I)c1)C(=O)O` (stereo not drawn), the activation was inactive: -13.8%.
For `C=C(C)C1COc2cc3oc(=O)ccc3cc2O1` (stereo not drawn) the value was inactive: -2.86%; for `C[C@@H]1CCC(=O)N(CC[C@H](N=[N+]=[N-])c2ccccc2)CC1`, inactive: -22.2%.
Regarding `Cc1nn(C)cc1CN1CCOc2ccc(CN3CCC(Oc4cccnc4)CC3)cc2C1`, the activation was inactive: -0.756%.
`COc1cccc(-c2cncnc2NC2CCNCC2)c1`: the activation was inactive: -14%.
On to `CCCCCc1ccc(-c2cn(Cc3ccc(C(=O)c4ccccc4)cc3)nn2)cc1`, for which the activation was inactive: -2.48%.
For `O=C1CCN(Cc2cccc(C(F)(F)F)c2)CCN1Cc1ccccn1` the value was inactive: -12.3%; for `Cc1c(C(=O)NCC(C)(C)N2CCOCC2)cnn1-c1nccc(-c2cccs2)n1`, inactive: -10.6%; for `[O-][N+](=Nc1ccccc1)c1ccccc1`, inactive: 13.2%.
Regarding `O=C(C[n+]1cccc2ccccc21)c1ccc(F)cc1`, the activation was inactive: 2.35%.
The result for `COc1ccc([C@@H](C)C(=O)c2ccc(O)cc2O)cc1` reads inactive: -21.2%.
For `Cc1cnnc2ccccc12` the value was inactive: -11.4%.
For `CO[C@H]1[C@H](NC(=O)c2ccco2)c2ccccc2C12CCN(Cc1cnc(N(C)C)s1)CC2` the value was inactive: -21.4%; for `COc1ccc2c(c1)OCC(Cc1ccc(OC)c(OC)c1)C2O` (stereo not drawn), inactive: -15.4% and inactive: -5.66%.
As for `CCCCCCCC(=O)OCC(O)CO` (stereo not drawn), the activation was inactive: -27.5%.
For `c1ccc(-c2nc[nH]c2-c2ccccc2)cc1` the value was inactive: -13.2%.
The result for `O=C(Nc1cccc(F)c1)N1CCC2(CC1)CCN(C(=O)c1cnccn1)CC2` reads inactive: 6.12%; that for `COc1ccccc1CN1CC[C@@]2(CCCN(C(=O)c3c(C)noc3C)C2)C1`, inactive: -0.842%.
The result for `C[N+]1(C)C2CC(OC(=O)C(CO)c3ccccc3)CC1C1OC12` (stereo not drawn) reads inactive: -12.5%; that for `CC(=O)Nc1ccc(C(=O)N2CCCC(c3nc(SCc4ccccn4)ncc3C)C2)cc1` (stereo not drawn), inactive: -4.23%.
`CC(=O)N1CCC2(CC1)CN(C(c1ccccc1)c1ccccc1)C2`: the activation was inactive: -7.21%.
For `CC1(C)S[C@@H]2[C@H](NC(=O)[C@H](N)c3ccccc3)C(=O)N2[C@H]1C(=O)O` the value was inactive: -3.65%.
For `c1csc(CNc2nc(-c3ccc4c(c3)OCO4)nc3ccccc23)c1` the value was inactive: 5.19%.
For `O=C(c1cc(-c2ccccc2)on1)N1CCOc2ccc(CN3CCN(c4ccccn4)CC3)cc2C1` the value was inactive: -0.107%; for `COc1cccc(Cn2c(=O)c(C)nc3cnc(Nc4cccc(OC)c4)nc32)c1`, inactive: 0.94%.
On to `CCCCC/C=C\C=C\[C@H](O)CCCCCCCC(=O)O`, for which the activation was inactive: -6.69%.
For `CN1C[C@H](C(=O)N[C@]2(C)O[C@@]3(O)C4CCCN4C(=O)[C@H](Cc4ccccc4)N3C2=O)C[C@@H]2c3cccc4[nH]cc(c34)C[C@H]21` (stereo partly drawn) the value was inactive: 2.9%.
The result for `O[C@@H](CNC[C@H](O)[C@H]1CCc2cc(F)ccc2O1)[C@@H]1CCc2cc(F)ccc2O1` reads inactive: -18.9%.
On to `CCCCCC(=O)/C=C/C=C\CCCCCCCC(=O)O`, for which the activation was inactive: 1.31%.

For the origin of these results see PubChem BioAssay AID1645887 (National Center for Advancing Translational Sciences (NCATS), 2021).
